Hit rate of the full screen: of about 360,000 compounds, about 25,000 (6.9%) were called active. Inconclusive results, whose numbers are uncertain, are shown with a selection of clear calls. Calls come from the whole dose curve; as a rule, active = well fitted inhibition curve with a large enough effect; inconclusive = small, poorly fitted or top-dose-only effect; inactive = flat fitted curve, though single readings scatter. Potencies beside an inconclusive call are fits to weak or partial responses and may not hold up.
molecular target: Luciferin 4-monooxygenase (Photinus pyralis) (UniProt P08659); assay: qHTS profiling assay for firefly luciferase inhibitor/activator using purifed enzyme and Km concentrations of substrates (counterscreen for miR-21 project); details: purified FLuc, luminescence inhibition; series mostly up to 57.5 µM; note: nearly all actives have a fitted effect of over 55% in size
Chain of UniProt P08659 (P08659 whole entry, looked up): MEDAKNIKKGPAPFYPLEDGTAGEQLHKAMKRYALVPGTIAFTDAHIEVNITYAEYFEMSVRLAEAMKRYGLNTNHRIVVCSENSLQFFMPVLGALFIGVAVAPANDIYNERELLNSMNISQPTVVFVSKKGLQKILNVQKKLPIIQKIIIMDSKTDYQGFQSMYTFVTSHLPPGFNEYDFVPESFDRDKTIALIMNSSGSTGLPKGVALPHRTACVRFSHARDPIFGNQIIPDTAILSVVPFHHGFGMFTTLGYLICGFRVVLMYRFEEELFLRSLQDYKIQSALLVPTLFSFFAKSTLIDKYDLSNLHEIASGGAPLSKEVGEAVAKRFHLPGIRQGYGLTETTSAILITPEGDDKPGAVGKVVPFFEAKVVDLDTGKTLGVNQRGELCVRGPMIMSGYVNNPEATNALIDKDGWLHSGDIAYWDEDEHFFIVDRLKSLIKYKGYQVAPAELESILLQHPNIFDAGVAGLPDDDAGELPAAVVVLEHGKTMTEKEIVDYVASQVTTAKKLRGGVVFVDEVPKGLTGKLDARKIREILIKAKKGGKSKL
Outline: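 Purified P. pyralis luciferase, 10 nM final, with Km-level 10 uM D-luciferin and 10 uM ATP in 50 mM Tris acetate pH 7.5, 10 mM Mg acetate, 0.01% Tween-20, 0.05% BSA; 6-point qHTS titration about 60 µM downward; luminescence read.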
Potency is the fitted concentration of half-maximal effect; tags give direction and shape of the fitted curve.

| SMILES | Potency |
| --- | --- |
| Cc1ccc(-c2cnc(C3CC3)o2)cc1S(=O)(=O)Nc1cccc(C)c1C | inactive |
| COCCNc1nnc(SC(C)C(=O)Nc2ccc(-c3nc4ccc(C)cc4s3)cc2)s1 (centres undefined) | active: 3.01 µM |
| CCOC(=O)c1nc2ccccc2c(C)c1C | inconclusive: 37.9 µM [inhibitor, single point] |
| COc1ccc(N(CC(=O)NCc2ccc3c(c2)OCO3)C(=O)c2csnn2)cc1 | inactive |
| Cc1ccc(NC(=O)CSc2ccc(-c3ccco3)nn2)cc1 | inconclusive: 23.9 µM [inhibitor, single point] |
| COc1ccccc1NC(=O)Cn1c(C)cc(C)c(C#N)c1=O | inactive |
| Cc1ccc2c(c1)-c1nc(-c3ccc4c(c3)NC(=O)CO4)cc(-c3ccccc3)c1CO2 | inactive |
| CC(C)(C)c1ccc(S(=O)(=O)/N=C2\C=C(NS(=O)(=O)c3ccccc3)C(=O)c3ccccc32)cc1 | inconclusive: 30.1 µM [inhibitor, single point] |
| COc1ccc(C(=O)COC(=O)c2cc(=O)[nH]c3ccccc23)c(OC)c1 | inconclusive: 1.07 µM [inhibitor, full curve, poor fit] |
| O=C(NC1CCN(Cc2ccccc2)CC1)c1ccc(Cn2c(=O)c3ccccc3n(Cc3ccc(Cl)cc3)c2=O)cc1 | inactive |
| Cn1c(Cl)c(C(=O)Nc2ccccc2)c2ccccc21 | active: 15.1 µM |
| COc1ccc2nc(SCC(=O)Nc3cc(OC)c(OC)cc3C(=O)O)c(C)cc2c1 | inconclusive: 13.5 µM [inhibitor, partial curve] |
| CCC(C)c1ccc(OCc2ccc(C(=O)OC)o2)cc1 (centres undefined) | inconclusive: 26.9 µM [inhibitor, single point] |
| CC(C)(C)c1nnc(N/N=C/c2ccccc2)n(N)c1=O | inconclusive: 37.9 µM [inhibitor, single point] |
| O=C(CSc1n[nH]c(-c2ccccc2Cl)n1)NCc1cccc(C(=O)O)c1 | inconclusive: 19 µM [inhibitor, partial curve, poor fit] |
| COCc1nc2ccccc2n1Cc1ccc(C(C)(C)C)cc1 | inconclusive: 30.1 µM [inhibitor, single point] |
| Cc1cc(C)c2nc3s/c(=C/c4ccccc4)c(=O)n3c2c1 | inconclusive: 13.5 µM [inhibitor, partial curve] |
| Cn1c(SCC(=O)Nc2ccc(N3CCOCC3)cc2)nnc1-c1ccccc1F | active: 16.9 µM |
| O=C(COc1ccc(F)cc1Cl)Nc1cccc(S(=O)(=O)N2CCCCCC2)c1 | inconclusive: 2.69 µM [inhibitor, full curve] |
| COc1ccccc1NCC(=O)N/N=C/c1c(O)ccc2ccccc12 | inconclusive: 19 µM [inhibitor, partial curve, poor fit] |
| CCc1ccc(/C=C2\SC(=S)N(CCCC(=O)Nc3ccc(C(=O)O)cc3)C2=O)cc1 | active: 4.78 µM |
| O=C(Nc1ccccc1OC(F)F)c1cccc(S(=O)(=O)N2CCCC2)c1 | inactive |
| CC(=O)c1ccc(N(C(=O)Cn2nnc3ccccc32)C(C(=O)NCc2ccccc2)c2ccccn2)cc1 (centres undefined) | inconclusive: 21.3 µM [inhibitor, partial curve, poor fit] |
| COc1ccccc1Oc1ccc(S(=O)(=O)N2CCCCC2)cc1NC(=O)CCNC(C)=O | inactive |
| NNC(=O)CNC(=O)c1ccccc1F | inactive |

| SMILES | Potency |
| --- | --- |
| O=C(NC1CC2CCCC(C1)N2C(=S)Nc1ccc(Cl)cc1)C1CC1 (centres undefined) | inactive |
| Cc1ccc(S(=O)(=O)N2CCC(=O)N(CCOCc3ccc(Cl)cc3)CC2)cc1 | inactive |
| Cc1ccc(NC(=O)Cn2c(=S)[nH]c3ccccc32)cc1 | inconclusive: 26.9 µM [inhibitor, partial curve, poor fit] |
| Cc1ccc(-c2noc(CN3CCC(C(N)=O)CC3)n2)cc1 | inconclusive: 21.3 µM [inhibitor, partial curve, poor fit] |
| Cc1ccc(CNC(=O)Cn2c(=O)ccc3cc(S(=O)(=O)N4CCC(C)CC4)ccc32)cc1 | inactive |
| Cc1onc(-c2ccccc2)c1C(=O)Nc1nc(-c2cc(F)ccc2F)cs1 | inconclusive: 19 µM [inhibitor, single point] |
| O=C(Nc1ccccc1C(F)(F)F)c1cc(-c2ccc3c(c2)OCCO3)on1 | active: 0.379 µM |
| CCN(CC)CCNC(=O)C(=O)NCC(c1cccnc1)N1CCN(c2ccc(F)cc2)CC1 (centres undefined) | inactive |
| Cc1ccn2c(c1)nc(=S)n2C(=O)c1ccco1 | active: 1.51 µM |
| CCN(c1ccccc1)S(=O)(=O)c1nnc(NC(=O)c2ccccc2)s1 | active: 2.39 µM |
| CCOC(=O)c1sc(NC(=O)CSc2nccn2C)nc1C | inconclusive: 21.3 µM [inhibitor, partial curve] |
| N#C/C(C(=O)Oc1ccccc1)=C1\C=Cc2ccccc2N1 | inconclusive: 23.9 µM [inhibitor, partial curve, poor fit] |
| Cc1cccc(OCc2nc(CC(=O)Nc3ccc(C)cc3C)cs2)c1 | inactive |
| C/C(=C\C(=O)O)C(=O)Nc1nccs1 | inactive |
| CCN1C(=O)[C@H]2[C@@H](c3ccc(Cl)cc3)N3C(=O)CN(CCOC)C(=O)[C@@]3(C)[C@H]2C1=O | inactive |
| CC(=O)Nc1ccc(/C=C/c2nc3ccccc3[nH]c2=O)cc1 | inconclusive: 21.3 µM [inhibitor, single point] |
| Cc1nnc(SCC(=O)Nc2nccs2)[nH]c1=O | inactive |
| Cc1ccc(-n2nc3ccc(N)cc3n2)cc1 | active: 0.536 µM |
| Nc1nn(-c2ccccc2)c2ccc([N+](=O)[O-])cc12 | active: 16.9 µM |
| COc1ccc(/C=C/C2=CCN(Cc3ccc(OC)cc3)CC2)cc1 | inactive |
| Cc1ccc(-c2cc(C(=O)OCC(=O)N(C)c3c(N)n(Cc4ccccc4)c(=O)[nH]c3=O)c3ccccc3n2)o1 | active: 2.39 µM |
| CN(C(=O)/C=C/c1ccc2c(c1)OCO2)c1ccccc1 | inconclusive: 37.9 µM [inhibitor, single point] |
| O=C(Nc1nccs1)c1csc2c1CCCC2 | active: 13.5 µM |
| COc1ccccc1C(=O)NC(CCSC)C(=O)NNC(=O)c1ccncc1 (centres undefined) | inactive |

Reference: PubChem BioAssay AID588342 (National Center for Advancing Translational Sciences (NCATS), 2011)
